Several values for one entry are separate records, joined by “and”; a condition that tells them apart may be missing. Equal entries are not always repeated. About 1,200 (2.5%) of roughly 48,000 compounds were called active. Another 2% or so got no clear call; they are omitted.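 The calls were made as follows: active = activation of at least 60% and not above a set upper limit (about 1 call in 100 departs from these limits); inconclusive = activation of 40% to 60%, or above that upper limit; inactive = activation under 40%.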 This is one part of the list.
The molecules below were run against Probable G-protein coupled receptor 32 (Homo sapiens) (UniProt O75388) (assay: qHTS for Agonists of Human Resolvin D1 Receptor DRV1). Settings: CHO-K1 GPR32 beta-arrestin PathHunter luminescence, 90 min; at 76.9 µM; active compounds read high; zero percent set by DMSO-only wells.
Sequence of UniProt O75388 (O75388 whole entry, looked up): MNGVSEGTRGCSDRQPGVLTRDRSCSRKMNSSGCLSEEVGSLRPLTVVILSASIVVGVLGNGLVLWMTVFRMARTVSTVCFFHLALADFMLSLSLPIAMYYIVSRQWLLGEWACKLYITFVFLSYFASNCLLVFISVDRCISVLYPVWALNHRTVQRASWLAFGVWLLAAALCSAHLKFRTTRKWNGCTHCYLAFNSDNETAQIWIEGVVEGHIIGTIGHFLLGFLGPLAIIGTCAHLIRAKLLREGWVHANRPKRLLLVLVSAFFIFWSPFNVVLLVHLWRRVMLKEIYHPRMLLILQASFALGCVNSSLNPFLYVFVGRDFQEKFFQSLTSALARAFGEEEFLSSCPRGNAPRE
Method in brief: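 Cells are plated overnight, treated with compounds in DMSO for 90 minutes at 37 °C, and developed with PathHunter detection reagent for 1 hour before luminescence is read; signal reflects beta-arrestin binding to GPR32 in engineered CHO-K1 cells.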
Also: 0% is about no effect.

activation, inactive:
COc1cc(OC)c(NC(=O)c2c(N3CCCC3=O)c3cc(C)ccc3n2C)cc1Cl -10.5%, COc1ccc(OC)c(CNC(=O)c2ccc3nc(C(C)C)oc3c2)c1 -30.4%, COc1ccc(Cl)cc1C(=O)Nc1ccc2nc(Nc3cccc(Cl)c3)cc(C)c2c1 -9.3%, Cc1ccccc1OCC(=O)Nc1nnc(S(=O)(=O)N2CCCC2)s1 5.36%, CCOc1ccccc1NC(=O)Cn1ncc2c([nH]c3ccccc32)c1=O -17.1%, CCn1c(=O)c2cc(C(=O)NCCCN3CCN(c4ccc(F)cc4)CC3)sc2c2ccccc21 9.76%, CC(C)Oc1ccc(CNC(=O)c2ccc3c(c2)nc2n3CCCCC2)cc1 -8%, Cc1cc(C)c(NC(=O)C(C)n2c(=O)cc(-c3ccccc3)c3c(C)nn(C)c32)c(C)c1 (stereo not drawn) -9.77%, CCCCNc1ccc(-c2nc(-c3ccccn3)no2)cc1[N+](=O)[O-] -7.33%, COc1ccc(-c2nnn3c2nc(NCc2ccc(C)cc2)c2ccccc23)cc1 15%, CC(C)COCC(CN(Cc1ccccc1)c1ccccc1)N1CCCC1 (stereo not drawn) 35.6% and -10.7%, CCCNC(=O)CSc1c(CCC)cnc2c1c(=O)n(C)c(=O)n2C -11.5%, CCOC(=O)c1cnc(N2CCN(c3cccc(C)c3C)CC2)c2ccccc12 -12.3%, O=C(NCCc1csc(-c2cccnc2)n1)c1ccccc1 12.1%, O=C(CN1C(=O)C2(SCC(=O)N2c2cccc(F)c2)c2ccccc21)NCCc1ccccc1 (stereo not drawn) -19%, Cc1nnc2c(N3CCN(c4ccc(F)cc4)CC3)nc3ccc(C(=O)c4ccccc4)cc3n12 3.85%, Cc1ccccc1C(=O)OCc1cc(=O)n2nc(C3CCCCC3)sc2n1 -3.99%, CC1CCCCN1CCCNC(=O)CN1C(=O)CSc2ccc(S(=O)(=O)N3CCOCC3)cc21 (stereo not drawn) -7.6%, CCOC(=O)c1cc(-c2ccc(OC)c(S(=O)(=O)NCc3ccccc3Cl)c2)on1 -15.8%, COc1ccc(OC)c(NC(=O)Cn2ccn(-c3ccc(OC)c(OC)c3)c(=O)c2=O)c1 7.36%, CCc1ccc(NC(=O)Nc2ccccc2OCc2cc(=O)n3ccccc3n2)cc1 -4.99%, Cn1c(=O)c2[nH]c(C3CCCC3)nc2n(C)c1=O 2.66%, Cc1ccc(CNC(=O)Cn2c(=O)cc(C)c3c(C)nn(-c4cccc(F)c4)c32)cc1 -8.23%, Cc1ccc(C)c(N2CCN(S(=O)(=O)c3ccc(-c4cnc(C5CC5)o4)cc3)CC2)c1 2.49%, CCOCCCNc1nc2c(S(=O)(=O)c3ccc(CC)cc3)nnn2c2ccc(Cl)cc12 -2.96%, O=C(Cn1ncc2c3ccccc3n(Cc3cccc(Cl)c3)c2c1=O)NCCCN1CCCCC1 -6.02%, COc1ccc(-c2cn3cccnc3n2)cc1NC(=O)Nc1cc(C)ccc1C -22.7%, O=C(NCCc1ccccc1)C1CCN(Cc2cc3ccccc3n2Cc2ccccc2)CC1 -49.6%, CCOc1ccccc1CN1CCc2nc(N3CCN(C)CC3)ncc2C1 -10.7%, Cc1ccc(NC(=O)CSc2nc(-c3cccs3)nc3cc(=O)[nH]n23)cc1C 2.37%, CN1C(C(=O)c2ccccc2)=C(NC(=O)c2ccc(F)cc2)c2ccccc2S1(=O)=O -24.8%, CCOc1ccc(-c2cc(C(=O)NC(C)c3ccccc3)c3ccccc3n2)cc1 (stereo not drawn) -18.4%, COc1ccc(COC(=O)C2=C(C)NC(=O)CC2c2cccc(Cl)c2Cl)cc1 (stereo not drawn) 9.17%, O=C(Nc1ccc(C(=O)N2CCN(c3ccccc3F)CC2)cc1)c1nsc2ccccc12 -14.9%, CCOC(=O)N1CCc2c(sc3c2c(=O)n(-c2ccc(F)cc2)c(=O)n3CC(=O)c2ccc(Cl)cc2)C1 -7.1%, CC(C)C(=O)OCc1cccc(OC(=O)[C@@H]2N3C(=O)[C@@H](NC(=O)Cc4ccccc4)[C@H]3SC2(C)C)c1 -9.27%, O=C(NCCc1ccc(Cl)cc1)c1ccc2c(c1)nc1n2CCOC1 2.56%, CN(C)CCN(Cc1ccco1)C(=O)c1cc2c(s1)-c1ccccc1OC2 -14.9%, COc1ccc(-c2onc(C)c2C)cc1S(=O)(=O)Nc1cccc(C#N)c1 1.92%, Cc1cccc(C(=O)NC2(C(F)(F)F)N=C(c3ccccc3)N(C3CCCCC3)C2=O)c1 (stereo not drawn) -24.9%, COc1ccc([C@@H]2Sc3ccccc3NC(=O)[C@@H]2O)cc1 -5.13%, CCc1ccc(NS(=O)(=O)c2ccc(-c3cc(C)no3)cc2)cc1 20.3%, CC(=O)C1=C(c2ccc(F)cc2)N(C(C)=O)n2c(nnc2C2CCCCC2)S1 -20.9%, CCOc1ccc(C(=O)NCC(c2ccc(Cl)cc2)N2CCCCC2)cc1 (stereo not drawn) -12.3%, COC(=O)[C@H]1[C@H]2C[C@@H]3c4[nH]c5cc(OC)ccc5c4CCN3C[C@H]2C[C@@H](OC(=O)COc2ccc(OC)cc2)[C@@H]1OC 22%, COC(=O)c1ccc(NC(=O)CC2C(=O)N(c3cccc(F)c3)C(=O)N2CC(C)C)cc1 (stereo not drawn) 4.72%, COc1ccc(NC(=O)Cn2nnnc2-c2ccccc2F)c(C)c1 0.281%, CCCNC(=O)C1CCC(Cn2c(=O)c3sccc3n(CC(=O)N(CC)CC)c2=O)CC1 (stereo not drawn) -8.92%, CCCN(CCC)CCNC(=O)CS(=O)Cc1nc(-c2ccc(OC)c(OC)c2)oc1C (stereo not drawn) -6.32%, Cc1ccc(-n2nc(C(=O)N3CCCCC3)c(=O)n(C)c2=O)cc1 -12.4%, NCC(=O)O -6.04%, COc1ccc(CN2C(=O)N(c3cccc(C)c3)C(=O)C2CC(=O)Nc2ccc(F)cc2)cc1OC (stereo not drawn) -10.3%, Cc1ccc(CNC(=O)c2cc3cc(C)ccc3n2C)cc1 2.65%, COc1ccc(-n2c(=O)c3ccc(C(=O)NCc4ccc(C)cc4)cc3n(CC(=O)Nc3cccc(F)c3)c2=O)cc1 18.6%, CNc1ccc(-c2nc(-c3ccccn3)no2)cc1[N+](=O)[O-] 0.956%, CN(Cc1ccccc1)C(=O)C(=O)Nc1ccc2nc3n(c(=O)c2c1)CCCCC3 15.8%, COc1cccc(C(=O)Nc2nc3c(s2)CCCC3)c1 -0.387%, CCOc1ccc(C2c3[nH]c4ccccc4c3CCN2C(=O)CSc2ccccc2)cc1 (stereo not drawn) -31.3%, COCCCNC(=O)Cn1c(=O)n(-c2ccccc2)c(=O)c2c1c1cc(OC)ccc1n2C -19.7%, CCOC(=O)c1cc(NC(=O)c2ccc(C)cc2)c(=O)n2c1oc1ccccc12 8.89%, CCOc1cc(CNCCSc2nnnn2C)ccc1OCc1ccc(Cl)cc1Cl 46.7%, Cc1ccc(NC(=O)CN2C(=O)COc3ccc(S(=O)(=O)N4CCCCC4)cc32)cc1Cl -29.9%, O=C(NCc1cccc(Cl)c1)c1cnc(N2CCCCC2)c2ccccc12 -23.1%, Cc1ccc(-c2ncc(Cl)cc2-c2ccc(S(C)(=O)=O)cc2)cn1 -18.5%, COc1ccc(CCNC(=O)Cn2c(=O)c3sccc3n(CC(=O)Nc3cccc(C(F)(F)F)c3)c2=O)cc1OC -14.1%, Cc1ccc(-n2ncc(C(=O)NCCc3ccsc3)c2C2CCN(C(=O)OC(C)(C)C)CC2)c(C)c1 -25.9%, COC(=O)c1cccc(Nc2c(-c3ccc(SC)cc3)nc3nc[nH]n23)c1 -28.2%, CCc1ccc(C2N=C(N)Nc3nc4ccccc4n32)cc1 (stereo not drawn) 48.8%, Cc1cccc(N2CCN(c3ncnc4onc(C)c34)CC2)c1C -0.0338%, COc1ccc(Cl)cc1NC(=O)CN(c1cccc(C)c1C)S(C)(=O)=O -1.23%, O=C(CCCCCn1c(=O)[nH]c2ccccc2c1=O)NCCc1ccccc1 -13%, Cc1cccc(S(=O)(=O)c2cn(Cc3ccc(F)cc3)c3cc(N4CCCCC4)c(F)cc3c2=O)c1 -10.1%, O=C(CSc1nc2c([nH]c3ccccc32)c(=O)n1-c1ccc(Cl)cc1)NCc1ccccc1 17.3%, CCc1ccc(CNC(=O)CN2C(=O)CSc3ccc(S(=O)(=O)N4CCOCC4)cc32)cc1 -18.2%, COc1cccc(C(=O)N(Cc2ccc(N(C)C)cc2)Cc2ccco2)c1 -29.1%, CC1=C(C(=O)Nc2cc(Cl)ccc2C)C(c2ccccc2F)n2ncnc2N1 (stereo not drawn) -5.82%, CN1CCN(C(CNC(=O)C(=O)Nc2ccccc2C#N)c2ccc3c(c2)OCO3)CC1 (stereo not drawn) 9.03%, CCc1ccccc1NC(=O)c1cc(-c2ccc(OC)cc2)on1 13.3%, CCc1ccc(S(=O)(=O)NCc2cccn2Cc2cccc(C)c2)cc1 -8.65%, COc1ccc(CCNC(=O)CSc2cc(=O)n(C)c3ccccc23)cc1OC 5.84%, CCn1c(=O)c(=O)n(CC)c2cc(N3CCCCC3)c(NC(=O)c3ccc(OC)c(OC)c3)cc21 11.4%, COc1cc(C(=O)Nc2sc3c(c2C(N)=O)CCC(C)C3)cc(OC)c1OC (stereo not drawn) 18.9%, Cc1ccc2sc(N(CCCN(C)C)C(=O)c3ccco3)nc2c1C -13.3%

— PubChem BioAssay AID1346428 (National Center for Advancing Translational Sciences (NCATS), 2018)
